The values below come from USRE50631E1, “ROR1 antibody immunoconjugates” (VelosBio Inc., priority 2017, dated 2025).

Entries after “also recorded” stand apart in the source; their conditions may differ.

One data set relates to MDA-MB-231 cells. The data set can be described thus: Internalization by MDA-MB-231 cells (pulse-chase flow cytometry). The format is cell-based, human. To be noted: MDA-MB-231 cells. As to the method:
Multiple methods were used to determine antibody internalization. In one approach, internalization was measured using a pulse-chase methodology that quantitates non-internalized, cell surface antibody at 15, 30, 60, 120, and 240 minutes using flow cytometry. Jeko-1 cells were grown and harvested prior to confluency, washed with cold PBS and resuspended at 1×10^7 in cold FACS buffer (PBS+2% FBS-Fisher/Gibco Cat. No. 16140071). 1×10^6 cells were added to microcentrifuge tubes or wells. Internalization of Ab1 and ADC constructs by the cells was determined at saturating antibody concentrations, using 30 μg/ml for Jeko-1 cells and 100 μg/mL for MDA-MB-231 cells. […]
Cells and antibody were incubated on ice for 20 minutes, spun at 300×g for 4 minutes, washed twice with 200 μL of FACS buffer, and resuspended in 100 μL of FACS buffer. […] A time course for antibody internalization was generated for each test article as described above, after which antibody remaining on the cell surface was detected using a PE-labeled secondary antibody. […] The median fluorescent intensity (MFI) was quantitated and the degree of receptor internalization was determined using the amount of the antibody or ADC present at each time point when compared to the amount present at time=0. […]
In general terms: In flow cytometry, cells or beads pass a laser one at a time.

The test system of a further data set is SKES. The data set can be described thus: Cytotoxicity in vitro (CellTiter-Glo viability), SKES. The format is cell-based, human. To be noted: SKES (EWS), 72 hours.
The next data set has as its system BR5011. Nature of the data set: Human TNBC PDX model BR5011. The format is in vivo, mouse. An excerpt: Two PDX models displaying different levels of ROR1 expression were selected for this study. ROR1 expression was based on the level of ROR1 staining via IHC of a tissue microarray representing triplicate cores of TNBC PDX models. The mean level of ROR1 expression as assessed by % ROR1-positive cells were 58% and 38% for human TNBC cells BR5011 and BR5015, respectively.
NOD/SCID nude mice were subcutaneously injected with BR5011 or BR5015 cells in the mammary fat pad. When palpable tumors were observed (mean tumor volume approximately 150 mm^3 for BR5011 and approximately 250 mm^3 for BR5015), animals were randomized into three groups. The groups for the BR5011 PDX model were vehicle control, 1 mg/kg ADC-A IV q4d, and 5 mg/kg ADC-A IV q4d. The groups for the BR5015 PDX model were vehicle control, 1 mg/kg ADC-A IV qw, and 5 mg/kg ADC-A IV qw. Mean TGI was calculated as described above.

The test system of another data set is HCC1806. Nature of the data set: Cytotoxicity in vitro (CellTiter-Glo viability), HCC1806. It counts as cell-based, human. The settings on record: HCC1806 (TNBC).
Another data set has as its system Jeko-1 MCL xenograft. The data set can be described thus: Jeko-1 human MCL xenograft model (study 7). The format is in vivo, mouse. To be noted: 1 mg/kg ADC-N, ADC-P, ADC-R; 5 mg/kg ADC-A, ADC-L, ADC-M, ADC-S, ADC-T; IV Q4D. As to the method:
Jeko-1 (MCL) cells were engrafted subcutaneously into mice. When tumor size reached 100 mm^3, the mice were randomized into nine groups, 9 mice/group. The groups were vehicle control; 1 mg/kg ADC-N, ADC-P or ADC-R; or 5 mg/kg ADC-A, ADC-L, ADC-M, ADC-S, or ADC-T. The mice were dosed IV q4d.
Background: Xenograft models place foreign cells or tissue in a host animal.

In a further data set the test system is U2932. Nature of the data set: Cytotoxicity in vitro (CellTiter-Glo viability), U2932. The format is cell-based, human. The settings on record: U2932 (DLBCL), 72 hours. On the technique in general: ATP-based viability assays read luminescence as a measure of living cells.
The subject of a further data set is Mec-vector. Nature of the data set: Cytotoxicity in vitro (CellTiter-Glo viability), Mec-vector. To be noted: read-out: EC50 (nM), cytotoxicity in vitro; Mec-vector (CLL), 72 hours.
Another data set has as its system A4573. The data set can be described thus: Cytotoxicity in vitro (CellTiter-Glo viability), A4573. It counts as cell-based, human. To be noted: A4573 (EWS), 72 hours.

B1: ADC-A: Ab1 conjugated via MAL (mc)-VC-PAB linker to MMAE (conjugate)
heavy: QVQLQESGPGLVKPSQTLSLTCTVSGYAFTAYNIHWVRQAPGQGLEWMGSFDPYDGGSSYNQKFKDRLTISKDTSKNQVVLTMTNMDPVDTATYYCARGWYYFDYWGHGTLVTVSS[skipping human IgG1 constant region]
light: DIVMTQTPLSLPVTPGEPASISCRASKSISKYLAWYQQKPGQAPRLLIYSGSTLQSGIPPRFSGSGYGTDFTLTINNIESEDAAYYFCQQHDESPYTFGEGTKVEIKRTVAAPSVFIFPPSDEQLKSGTASVVCLLNNFYPREAKVQWKVDNALQSGNSQESVTEQDSKDSTYSLSSTLTLSKADYEKHKVYACEVTHQGLSSPVTKSFNRGEC
Take B1: the “internalization compared with Ab1” value in the data set with MDA-MB-231 cells is reported as “did not negatively impact binding or internalization”. The EC50 in the data set on SKES came to 15.3 nM; in the data set on HCC1806 (72 hours), 38.1 nM; in the data set on HCC1806 (96 hours (values marked *)), 13.4 nM; in the data set on U2932, 176 nM; with Mec-vector, 558 nM; with A4573, 15.3 nM. Besides, the “mean TGI” value in the data set on BR5011 (1 mg/kg IV q4d) is listed as 40.1% at 1 mg/kg,. For the same molecule, the “mean TGI / tumor response” value in the data set on BR5011 (5 mg/kg IV q4d, 58% of intra-tumoral cells ROR1-positive) is “complete and sustained regressions were observed in all tumors; also recorded: complete regression at 5 mg/kg”. In addition, in the data set with Jeko-1 MCL xenograft, the “tumor growth / average tumor size (interim results, day 14)” value is “Significant tumor regression”.
